Structures are written as SMILES.

The test has as its target full-length recombinant NH-terminal GST tagged human PDE1b enzyme (Homo sapiens, UniProt Q01064). As to the kind of experiment: PDE1b inhibitory assay (IMAP TR-FRET). Particulars: negative log of half-maximal molar inhibitory concentration; FAM-cAMP 200 nM; reported as bins; read-out: PDE1b (pEC50) (converted). The class given is biochemical.

As to `C[C@@H]1CN(Cc2cnc3c(c2)c2ncnn2c(=O)n3Cc2ccc(Cl)cc2F)C[C@H](C)O1` [Example 145, 6-(4-Chloro-2-fluorobenzyl)-9-(((2R,6S)-2,6-dimethylmorpholino)methyl)pyrido[3,2-e][1,2,4]triazolo[1,5-c]pyrimidin-5(6H)-one], the EC50 was 0.1 to 1 µM.

As for `COc1ccc(Cn2c(=O)n3ncnc3c3cc(Br)cnc32)cc1` [Example 1, 9-Bromo-6-(4-methoxybenzyl)pyrido[3,2-e][1,2,4]triazolo[1,5-c]pyrimidin-5(6H)-one], the EC50 was 0.1 to 1 µM.

Regarding `COc1ccc(Cn2c(=O)n3ncnc3c3cc(CN4CCN(CC5CCOC5)CC4)cnc32)cc1` (centres unmarked) [Example 67, 6-(4-Methoxybenzyl)-9-((4-((THF-3-yl)methyl)piperazin-1-yl)methyl)pyrido[3,2-e][1,2,4]triazolo[1,5-c]pyrimidin-5(6H)-one], the EC50 is 1 to 10 µM.

For `COc1ccc(Cn2c(=O)n3ncnc3c3cc(N4CCC(N(C)C)C4)cnc32)cc1` (centres unmarked) [Example 14, 9-(3-(Dimethylamino)pyrrolidin-1-yl)-6-(4-methoxybenzyl)pyrido[3,2-e][1,2,4]triazolo[1,5-c]pyrimidin-5(6H)-one], the EC50 was 0.1 to 1 µM.

Consider `COc1ccc(Cn2c(=O)n3ncnc3c3cc(C(O)CN4C[C@@H](C)O[C@@H](C)C4)cnc32)cc1` (stereo partly drawn) [Example 84, 9-(2-((2S,6R)-2,6-Dimethylmorpholino)-1-hydroxyethyl)-6-(4-methoxybenzyl)pyrido[3,2-e][1,2,4]triazolo[1,5-c]pyrimidin-5(6H)-one], for which the EC50 was < 0.1 µM.

Turning to `C[C@@H]1CN(Cc2cnc3c(c2)c2ncnn2c(=O)n3Cc2ccc(C#N)cc2)C[C@H](C)O1` [Example 95, 4-((9-(((2S,6R)-2,6-Dimethylmorpholino)methyl)-5-oxopyrido[3,2-e][1,2,4]triazolo[1,5-c]pyrimidin-6(5H)-yl)methyl)benzonitrile], the EC50 is > 10 µM.

With `C[C@@H]1CN(Cc2cnc3c(c2)c2ncnn2c(=O)n3Cc2cc(F)c(F)c(F)c2)C[C@H](C)O1` [Example 156, 9-(((2R,6S)-2,6-Dimethylmorpholino)methyl)-6-(3,4,5-trifluorobenzyl)pyrido[3,2-e][1,2,4]triazolo[1,5-c]pyrimidin-5(6H)-one], the EC50 was 1 to 10 µM.

Regarding `CC(C)c1ccc(Cn2c(=O)n3ncnc3c3cc(CN4C[C@@H](C)O[C@@H](C)C4)cnc32)cc1` [Example 125, 9-(((2S,6R)-2,6-Dimethylmorpholino)methyl)-6-(4-isopropylbenzyl)pyrido[3,2-e][1,2,4]triazolo[1,5-c]pyrimidin-5(6H)-one], the EC50 was 1 to 10 µM.

In the case of `C[C@@H]1CN(Cc2cnc3c(c2)c2ncnn2c(=O)n3Cc2ccc(OC(F)F)cc2F)C[C@H](C)O1` [Example 106], the EC50 is 0.1 to 1 µM.

For `COc1ccc(Cn2c(=O)n3ncnc3c3cc(CN4CC(O)C4)cnc32)c(F)c1F` [Example 169], the EC50 is 1 to 10 µM.

With `COc1ccc(Cn2c(=O)n3ncnc3c3cc(CN4C[C@H](C)OC[C@@H]4C)cnc32)cc1` [Example 63, 9-(((2S,5S)-2,5-Dimethylmorpholino)methyl)-6-(4-methoxybenzyl)pyrido[3,2-e][1,2,4]triazolo[1,5-c]pyrimidin-5(6H)-one], the EC50 was < 0.1 µM.

Regarding `COc1ccc(Cn2c(=O)n3ncnc3c3cc(CN4C[C@@H](C)O[C@@H](C)C4)cnc32)c(Cl)c1` [Example 112], the EC50 was 0.1 to 1 µM.

Take `COc1ccc(Cn2c(=O)n3ncnc3c3nc(N(C)CCN(C)C)cnc32)cc1` [Example 12, 9-((2-(Dimethylamino)ethyl)(methyl)amino)-6-(4-methoxybenzyl)-[1,2,4]triazolo[1,5-c]pteridin-5(6H)-one]: the EC50 is 1 to 10 µM.

Consider `CCOc1c(F)cc(Cn2c(=O)n3ncnc3c3cc(CN4C[C@@H](C)O[C@@H](C)C4)cnc32)cc1F` [Example 127, 9-(((2S,6R)-2,6-Dimethylmorpholino)methyl)-6-(4-ethoxy-3,5-difluorobenzyl)pyrido[3,2-e][1,2,4]triazolo[1,5-c]pyrimidin-5(6H)-one], for which the EC50 is 1 to 10 µM.

For `COc1ccc(Cn2c(=O)n3ncnc3c3cc(C(O)C(F)(F)F)cnc32)cc1` (centres unmarked) [Example 87, 6-(4-Methoxybenzyl)-9-(2,2,2-trifluoro-1-hydroxyethyl)pyrido[3,2-e][1,2,4]triazolo[1,5-c]pyrimidin-5(6H)-one], the EC50 was 0.1 to 1 µM.

In the case of `COc1ccc(Cn2c(=O)n3ncnc3c3cc(CN4C[C@@H](C)N[C@@H](C)C4)cnc32)cc1` [Example 66, 9-(((3S,5R)-3,5-Dimethylpiperazin-1-yl)methyl)-6-(4-methoxybenzyl)pyrido[3,2-e][1,2,4]triazolo[1,5-c]pyrimidin-5(6H)-one], the EC50 was 1 to 10 µM.

As to `COCOCc1cnc2c(c1)c1ncnn1c(=O)n2Cc1ccc(OC)cc1` [Example 31, 6-(4-Methoxybenzyl)-9-((methoxymethoxy)methyl)pyrido[3,2-e][1,2,4]triazolo[1,5-c]pyrimidin-5(6H)-one], the EC50 was 0.1 to 1 µM.

As to `COc1cc(Cn2c(=O)n3ncnc3c3cc(CN4C[C@@H](C)O[C@@H](C)C4)cnc32)ccc1F` [Example 137], the EC50 is > 10 µM.

In the case of `COc1cccc(Cn2c(=O)n3ncnc3c3cc(CN4C[C@@H](C)O[C@@H](C)C4)cnc32)c1` [Example 133, 9-(((2S,6R)-2,6-Dimethylmorpholino)methyl)-6-(3-methoxybenzyl)pyrido[3,2-e][1,2,4]triazolo[1,5-c]pyrimidin-5(6H)-one], the EC50 is 1 to 10 µM.

Consider `COc1ccc(Cn2c(=O)n3ncnc3c3ncc(Br)cc32)cc1` [Example 2, 8-Bromo-6-(4-methoxybenzyl)pyrido[2,3-e][1,2,4]triazolo[1,5-c]pyrimidin-5(6H)-one], for which the EC50 was 1 to 10 µM.

For the compound `C[C@@H]1CN(Cc2cnc3c(c2)c2ncnn2c(=O)n3Cc2ccccc2SC(F)(F)F)C[C@H](C)O1` [Example 109, 9-(((2S,6R)-2,6-Dimethylmorpholino)methyl)-6-(2-((trifluoromethyl)thio)benzyl)pyrido[3,2-e][1,2,4]triazolo[1,5-c]pyrimidin-5(6H)-one], the EC50 was > 10 µM.

Regarding `C[C@@H]1CN(Cc2cnc3c(c2)c2ncnn2c(=O)n3Cc2ccc(F)cc2Cl)C[C@H](C)O1` [Example 144], the EC50 was 1 to 10 µM.

Turning to `COc1cc(F)c(Cn2c(=O)n3ncnc3c3cc(CN4C[C@@H](C)O[C@@H](C)C4)cnc32)c(F)c1` [Example 103, 6-(2,6-Difluoro-4-methoxybenzyl)-9-(((2S,6R)-2,6-dimethylmorpholino)methyl)pyrido[3,2-e][1,2,4]triazolo[1,5-c]pyrimidin-5(6H)-one], the EC50 is < 0.1 µM.

For the compound `Cc1cc(Cn2c(=O)n3ncnc3c3cc(CN4C[C@@H](C)O[C@@H](C)C4)cnc32)cc(C)c1F` [Example 148], the EC50 is > 10 µM.

Regarding `C[C@@H]1CN(Cc2cnc3c(c2)c2ncnn2c(=O)n3Cc2ccc(N3CCCC3=O)cc2)C[C@H](C)O1` [Example 116, 9-(((2S,6R)-2,6-Dimethylmorpholino)methyl)-6-(4-(2-oxopyrrolidin-1-yl)benzyl)pyrido[3,2-e][1,2,4]triazolo[1,5-c]pyrimidin-5(6H)-one], the EC50 was > 10 µM.

For `O=c1n(Cc2ccc(Cl)cc2)c2ncc(CN3CCCCC3)cc2c2ncnn12` [Example 25, 6-(4-Chlorobenzyl)-9-(piperidin-1-ylmethyl)pyrido[3,2-e][1,2,4]triazolo[1,5-c]pyrimidin-5(6H)-one], the EC50 is 1 to 10 µM.

Consider `COc1ccc(Cn2c(=O)n3ncnc3c3cc(N4C[C@@H](C)O[C@@H](C)C4)cnc32)cc1` [Example 17, 9-((2S,6R)-2,6-Dimethylmorpholino)-6-(4-methoxybenzyl)pyrido[3,2-e][1,2,4]triazolo[1,5-c]pyrimidin-5(6H)-one], for which the EC50 was 0.1 to 1 µM.

On to `COc1ccc(Cn2c(=O)n3ncnc3c3cc(CN4C[C@@H](C)OC[C@H]4C)cnc32)cc1` [Example 64, 9-(((2R,5R)-2,5-Dimethylmorpholino)methyl)-6-(4-methoxybenzyl)pyrido[3,2-e][1,2,4]triazolo[1,5-c]pyrimidin-5(6H)-one], for which the EC50 was 0.1 to 1 µM.

For `C[C@@H]1CN(Cc2cnc3c(c2)c2ncnn2c(=O)n3Cc2cccc(Cl)c2Cl)C[C@H](C)O1` [Example 150], the EC50 is 0.1 to 1 µM.

For `Cc1c(F)c(F)c(Cn2c(=O)n3ncnc3c3cc(CN4C[C@@H](C)O[C@@H](C)C4)cnc32)c(F)c1F` [Example 160, 9-(((2S,6R)-2,6-Dimethylmorpholino)methyl)-6-(2,3,5,6-tetrafluoro-4-methylbenzyl)pyrido[3,2-e][1,2,4]triazolo[1,5-c]pyrimidin-5(6H)-one], the EC50 is 0.1 to 1 µM.

`COc1ccc(Cn2c(=O)n3ncnc3c3nc(CN4CCOC(C)C4)cnc32)cc1` (centres unmarked) [Example 163, 6-(4-Methoxybenzyl)-9-((2-methylmorpholino)methyl)-[1,2,4]triazolo[1,5-c]pteridin-5(6H)-one]: the EC50 was 0.1 to 1 µM.

For `COc1ccc(Cn2c(=O)n3ncnc3c3nc(CN4C[C@@H](C)O[C@@H](C)C4)cnc32)cc1` [Example 47, 9-(((2S,6R)-2,6-Dimethylmorpholino)methyl)-6-(4-methoxybenzyl)-[1,2,4]triazolo[1,5-c]pteridin-5(6H)-one], the EC50 was 0.1 to 1 µM.

On to `COc1ccc(Cn2c(=O)n3ncnc3c3cc(CN4CCCCC4)cnc32)c(F)c1F` [Example 123, 6-(2,3-Difluoro-4-methoxybenzyl)-9-(piperidin-1-ylmethyl)pyrido[3,2-e][1,2,4]triazolo[1,5-c]pyrimidin-5(6H)-one], for which the EC50 was 1 to 10 µM.

As for `COc1cc(Cn2c(=O)n3ncnc3c3cc(CN4C[C@@H](C)O[C@@H](C)C4)cnc32)cc(OC)c1` [Example 153, 6-(3,5-Dimethoxybenzyl)-9-(((2R,6S)-2,6-dimethylmorpholino)methyl)pyrido[3,2-e][1,2,4]triazolo[1,5-c]pyrimidin-5(6H)-one], the EC50 was > 10 µM.

Regarding `C#Cc1ccc(Cn2c(=O)n3ncnc3c3cc(CN4C[C@@H](C)O[C@@H](C)C4)cnc32)cc1` [Example 128, 9-(((2S,6R)-2,6-Dimethylmorpholino)methyl)-6-(4-ethynylbenzyl)pyrido[3,2-e][1,2,4]triazolo[1,5-c]pyrimidin-5(6H)-one], the EC50 is < 0.1 µM.

(Values after US9284335B2, “Substituted pyrido[3,2-e][1,2,4]triazolo[1,5-c]pyrimidines, pyrido[2,3-e][1,2,4]triazolo[1,5-c]pyrimidines and/or [1,2,4]triazolo[1,5-c]pteridines for treatment of central nervous system diseases and disorders” (DART NEUROSCIENCE (CAYMAN) LTD., priority 2012, dated 2016).)
